We go through 61 molecules from PubChem BioAssay AID1508642 (National Center for Advancing Translational Sciences (NCATS), 2021).

Hit rate of the full screen: of about 43,000 compounds, about 200 (0.47%) were called active. Not shown: some 12% with an inconclusive outcome. Calls come from the whole dose curve; as a rule, active = well fitted cell-killing curve with a large enough effect; inconclusive = small, poorly fitted or top-dose-only effect, or effect the other way; inactive = flat fitted curve, though single readings scatter. This is one part of the list.
% is set by controls: 0 for no effect and ±100 for the full control effect.

The assay is described as follows: Cell viability qHTS assay in S16 Pmp22-F2sN cells. Note: nearly all actives have a fitted effect of over 65% in size. Particulars: S16 Pmp22-F2sN Schwann cells (luciferase reporters placed in the Pmp22 gene) viability, CellTiter-Glo, 24 h; series mostly up to 57.5 µM; activity change, negative = cytotoxicity: at the top concentration. In short, it runs like this:
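Luminescence from CellTiter-Glo, read by CCD camera after a 15 min room-temperature incubation, served as the viability signal. Reporter Schwann cells (S16 Pmp22-F2sN) had been treated with pin-transferred compounds for 24 h at 37C.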
(In qHTS, concentration-response curves come from the screen itself.)
As to `CC(=O)c1ccc(NC(=O)c2ccc3c(c2)N(Cc2cccc(Cl)c2)C(=O)c2ccccc2S3(=O)=O)cc1`, the “activity change, negative = cytotoxicity” value is inactive: 9.98%.
As for `CCOC(=O)c1c(C)[nH]c(C)c1S(=O)(=O)N1CCC(C(=O)Nc2ccc(F)cc2F)CC1`, the “activity change, negative = cytotoxicity” value is inactive: -19.1%.
With `COc1ccc(S(=O)(=O)NCCc2nnc3ccc(SCC(=O)Nc4ccc(C(F)(F)F)cc4)nn23)cc1` the figure was inactive: -10.2%.
On to `CC(=O)c1ccc(NS(=O)(=O)c2cc3[nH]c(=O)c(=O)[nH]c3cc2C)cc1`, for which the “activity change, negative = cytotoxicity” value was inactive: 17.1%.
For `Cc1cccc(-n2c3c(cc(-c4nc(-c5ccc(Cl)cc5)cs4)c2=O)C(=O)CC(C)(C)C3)c1`, the “activity change, negative = cytotoxicity” value was inactive: 6.3%.
With `COC(=O)c1ccc2c(=O)n(CCCCCC(=O)NCc3ccccc3)c(=O)[nH]c2c1`, the “activity change, negative = cytotoxicity” value is inactive: 9.12%.
As to `CCc1ccc(NC(=O)c2cc(-c3cccs3)on2)cc1`, the “activity change, negative = cytotoxicity” value was inactive: 2.91%.
Turning to `O=C(CN1CCSc2ccccc21)N1CCN(c2ccccc2)CC1`, the “activity change, negative = cytotoxicity” value is inactive: -6.1%.
Turning to `CCn1cc(C2N3CC4(CC)CN2CC(CC)(C3)C4=O)c2ccccc21` (stereo unspecified), the “activity change, negative = cytotoxicity” value is inactive: 5.09%.
As for `O=C(c1cnc2cc(-c3ccccc3)nn2c1)c1cc([N+](=O)[O-])ccc1O`, the “activity change, negative = cytotoxicity” value is inactive: -13.1%.
Turning to `CCCn1c(=N)c(C(=O)NCc2cccnc2)cc2c(=O)n3cc(C)ccc3nc21`, the “activity change, negative = cytotoxicity” value is inactive: -1.6%.
Consider `O=C(C1CCCN(S(=O)(=O)c2cccc3nonc23)C1)N1CCN(c2cccc(Cl)c2)CC1` (stereo unspecified), for which the “activity change, negative = cytotoxicity” value was inactive: -23.4%.
Turning to `CCOc1ccccc1CNc1ncnc2c1nc1n2CCCC1`, the “activity change, negative = cytotoxicity” value is inactive: 1.58%.
For `CSc1ccc(CCNC(=O)CCc2c(C)nc3c(-c4ccccc4)c(C)nn3c2C)cc1`, the “activity change, negative = cytotoxicity” value was inactive: -3.48%.
For the molecule `Cc1ccccc1Cn1nc(C)c(NC(=O)c2cc(-c3ccc(F)cc3)on2)c1C`, the “activity change, negative = cytotoxicity” value is inactive: 15.2%.
For `Cc1cc(C)c2c(=O)c3c(oc2c1)C(=O)N(Cc1ccc(F)cc1)C3c1cccc(O)c1` (stereo unspecified) the value was inactive: -18.3%; for `O=C(COc1ccc(Cl)cc1)Nc1ccccc1C(=O)OCc1cc(=O)n2ccsc2n1`, inactive: -3.48%.
`CCCC(=O)NCC(c1ccc2c(c1)OCO2)N1CCOCC1` (stereo unspecified): the “activity change, negative = cytotoxicity” value is inactive: -3.57%.
Consider `Cc1ccc(CNC(=O)CN(c2ccc(C(C)C)cc2)S(=O)(=O)c2c(C)n[nH]c2C)cc1`, for which the “activity change, negative = cytotoxicity” value was inactive: -10.7%.
With `CC(C)(C)CC(=O)Nc1nnc2n1CCS2` the figure was inactive: -2.45%; with `COc1ccc(Cn2ccnc2SCC(=O)Nc2ccc(C)cc2C)cc1`, inactive: -3.17%.
For `CC1CCN(C(=O)CN2CCSc3ccccc32)CC1`, the “activity change, negative = cytotoxicity” value was inactive: -17.9%.
For `CC(NC(=O)c1nn(C)c2c1CSc1ccccc1-2)c1ccccc1` (stereo unspecified) the value was inactive: 2.74%; for `O=C(Nc1ccc(SC(F)F)cc1)c1cc(-c2cccs2)on1`, inactive: -3.48%; for `COC(=O)c1sc2cccc(F)c2c1S(=O)(=O)N1CCN(c2ccccc2OC)CC1`, inactive: 6.96%.
For `O=C(CCS(=O)(=O)c1cccs1)Nc1ccc(C(=O)Nc2cccc(Cl)c2)cc1` the value was inactive: 23.9%.
As for `COc1cc(OC)cc(C(=O)N2CCC(c3ccncc3)CC2)c1`, the “activity change, negative = cytotoxicity” value was inactive: 1.16%.
With `COc1ccc(CNc2ccc3cc(S(=O)(=O)N4CCCCC4)ccc3n2)cc1` the figure was inactive: -25.9%; with `Cc1ccc(C)c(NC(=O)CN2C(=O)CSc3nc(C)cc(C)c32)c1`, inactive: -1.81%; with `O=C(Cc1ccccc1)Nc1c(C(=O)N2CCN(c3ccc(F)cc3)CC2)oc2ccccc12`, inactive: -3.19%.
Take `Cc1ccc(-c2cc(NC(=O)C(C)Oc3ccc(C)c(C)c3)on2)cc1` (stereo unspecified): the “activity change, negative = cytotoxicity” value is inactive: -19.9%.
For `CCOc1ccc(C(=O)Nc2nnc(S(=O)(=O)N(CC)c3ccccc3C)s2)cc1` the value was inactive: -14.5%; for `O=C(NCCc1ccccc1)c1ccc2c(c1)CCN2S(=O)(=O)c1ccc(Br)cc1`, inactive: -15%; for `CSc1cccc(NC(=O)C2CCN(c3ncnc4c3nc3n4CCCCC3)CC2)c1`, inactive: -16.9%.
With `O=C(c1ccc(F)cc1)N1CCC(c2nc3ccccc3o2)CC1` the figure was inactive: 22.2%.
For `CC(C)NC(=O)CC(=O)Nc1ccc2nc3n(c(=O)c2c1)CCCCC3`, the “activity change, negative = cytotoxicity” value was inactive: 23.7%.
For the molecule `CCOc1ccccc1NC(=O)C(NS(=O)(=O)c1ccc2c(c1)CCC(=O)N2)c1ccccc1` (stereo unspecified), the “activity change, negative = cytotoxicity” value is inactive: 9.96%.
Regarding `O=C(NC1CCCCCC1)c1cc2c(Cl)nc3ccccc3c2s1`, the “activity change, negative = cytotoxicity” value is inactive: -8.64%.
Regarding `O=C(c1ccc2c(c1)N(Cc1ccc(Cl)cc1)C(=O)c1ccccc1S2=O)N1CCN(c2ccccc2F)CC1` (stereo unspecified), the “activity change, negative = cytotoxicity” value is inactive: 0.847%.
`COc1ccc(-c2nc(C(N)=O)c3c(n2)n(-c2ccccc2OC)c(=O)n3C)c(OC)c1`: the “activity change, negative = cytotoxicity” value was inactive: 0.441%.
With `CCCCOc1ccc(C(=O)N2CCC(c3nc4ccccc4o3)CC2)cc1` the figure was inactive: 1.48%.
For `CCOC(=O)c1ccc(NC(=O)C2=C(C)Nc3nc(SCc4ccc(Cl)cc4)nn3C2c2ccc(C)cc2)cc1` (stereo unspecified), the “activity change, negative = cytotoxicity” value was inactive: -4.27%.
For `CCOc1ccc(CC(=O)NCCc2csc(-c3ccc(C(F)(F)F)cc3)n2)cc1`, the “activity change, negative = cytotoxicity” value was inactive: 0.43%.
With `Cc1nn(C(=O)COc2ccccc2)c(C)c1Sc1ccccc1` the figure was inactive: 21.9%; with `COc1ccc(CNC(=O)c2ccc3c(c2)N(C)C(=O)C2CCCCN32)cc1OC` (stereo unspecified), inactive: 4.07%; with `CC(C)(C)c1ccc(Oc2nc3ccccn3c(=O)c2/C=C(\C#N)c2nc3ccccc3[nH]2)cc1`, inactive: 3.38%.
As for `O=C(CCC(=O)N1CC2CCCN2c2ccccc21)NCc1ccccc1` (stereo unspecified), the “activity change, negative = cytotoxicity” value was inactive: -13.2%.
On to `O=C(NC1CC(=O)N(c2ccccc2)C1)c1ccc(Br)o1` (stereo unspecified), for which the “activity change, negative = cytotoxicity” value was inactive: 5.48%.
On to `O=C(NCCCN1CCN(c2cccc(Cl)c2)CC1)Nc1ccccc1C(F)(F)F`, for which the “activity change, negative = cytotoxicity” value is inactive: -21.9%.
As to `COc1cccc(CNC(=O)C2CCN(c3nn4c(=O)cc(C)nc4s3)CC2)c1`, the “activity change, negative = cytotoxicity” value is inactive: 6.65%.
In the case of `Cc1cccc(N(CC(=O)NCCSCc2ccc(Cl)cc2)S(C)(=O)=O)c1C`, the “activity change, negative = cytotoxicity” value is inactive: -18.5%.
For `CCOc1ccc(NC(=O)c2cc3c(n(-c4ccc(OC)cc4)c2=O)CC(C)(C)CC3=O)cc1`, the “activity change, negative = cytotoxicity” value is inactive: 1.02%.
For `COc1ccccc1Cn1c(CNS(=O)(=O)c2ccccc2Cl)nc2cccnc21` the value was inactive: 8.69%; for `CC(=O)c1cccc(NC(=O)c2cccn2-c2nnc(N3CCCCC3)s2)c1`, inactive: 1.82%.
Turning to `COc1ccc(NC(=O)CN2C(=O)COc3ccc(S(=O)(=O)Nc4ccccc4)cc32)cc1OC`, the “activity change, negative = cytotoxicity” value is inactive: 9.43%.
Regarding `CCN(c1cccc(C)c1)S(=O)(=O)c1ccc2c(c1)NC(=O)CCS2`, the “activity change, negative = cytotoxicity” value was inactive: -0.425%.
On to `O=C(COCc1cc(-c2cccs2)on1)Nc1cccc(Cl)c1Cl`, for which the “activity change, negative = cytotoxicity” value was inactive: 23%.
With `CCN(CC)C(=O)Cn1cc(SCC(=O)Nc2ccccc2F)c2ccccc21` the figure was inactive: 4.14%; with `CCOC(=O)Cn1c(=O)oc2cc(S(=O)(=O)N3CCN(c4ccccc4F)CC3)ccc21`, inactive: -2.83%.
With `CCn1cc(C(=O)N2CCN(c3ccc(F)cc3)CC2)c(=O)c2cc(S(=O)(=O)N3CCOCC3)ccc21`, the “activity change, negative = cytotoxicity” value is inactive: -3.21%.
With `COc1ccc(NC(=O)C(=O)NCC(c2ccc3c(c2)OCO3)N2CCN(C)CC2)cc1` (stereo unspecified) the figure was inactive: 16.3%.
